Experimental data published in PubChem BioAssay AID1345082 (National Center for Advancing Translational Sciences (NCATS), 2018).
Values joined by “and” are separate entries in the source; they are usually repeats but may differ in a detail not shown here. Equal values may be shown once. Among all 94,000 compounds or so, about 4,000 (4.3%) were called active. Inconclusive results, whose numbers are uncertain, are shown with a selection of clear calls. The call rests on the fitted dose curve; in most records, active means well fitted inhibition curve with a large enough effect; inconclusive means small, poorly fitted or top-dose-only effect; inactive means no such curve, though single readings can be large or run the other way. A potency beside an inconclusive call is a rough fit, not a confirmed value.

assay: Cytotoxic Profiling in NIH 3T3 Cell Line of Diverse Libraries Using Quantitative High-Throughput Screening; settings: NIH 3T3 viability, CellTiter-Glo ATP luminescence, 48-72 h; series mostly up to 96.7 µM; further: nearly all actives have a fitted effect of over 55% in size
Summary of the method: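 Cytotoxicity is measured as loss of cellular ATP: NIH 3T3 cells (400/well) are exposed to compound for 48 or 72 hr at 37 °C, then CellTiter-Glo luminescence is imaged after 10 min at room temperature.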
Potency means the concentration at half of the fitted maximal effect; tags describe the fitted curve by direction and shape.

Row | SMILES | Potency
1 | O=C1CO[C@H]2CCN(Cc3cccs3)CC[C@@H]2N1Cc1ccccc1 | inconclusive: 89.1 µM [inhibitor, partial curve, poor fit]
2 | CC(C)N(CC1CC1)C(=O)CC1COc2ccc(C(=O)N(C)C)cc2N1C (stereo not drawn) | inactive
3 | COc1ccc(-c2nc(-c3nnn4c3COC(c3ccc(Cl)cc3)C4)no2)cc1 (stereo not drawn) | inactive
4 | COc1cccc(N2CCN(C(=O)COc3ccc(NC(=O)C4CC4)cn3)CC2)c1 | inconclusive: 79.4 µM [inhibitor, single point]
5 | COc1ccccc1NC(=O)Cn1c(=O)n(-c2ccccc2)c(=O)c2c1cc(C)n2C | inactive
6 | O=C(C[C@@H]1CCNC[C@@H]1Cc1cc(-c2ccc(F)cc2)on1)Nc1nccs1 | active: 100 µM
7 | CCN(CC)C(=O)C1CCCN(Cc2ccc3c(c2)CN(Cc2cc(OC)cc(OC)c2)CCO3)C1 (stereo not drawn) | inactive
8 | O=C(NC1CCCCCC1)C1CCN(C(=O)c2ncn3c2COC(c2ccccc2)C3)CC1 (stereo not drawn) | inactive
9 | CCn1nccc1C(=O)N1CC(Oc2ccc(-c3nc(-c4ccccc4)no3)cc2)C1 | inconclusive: 17.8 µM [inhibitor, full curve, poor fit]
10 | CC(=O)c1ccc(NC(=O)N[C@H]2CO[C@H]3[C@@H]2OC[C@@H]3Nc2nccc(-c3ccco3)n2)cc1 | inconclusive: 56.2 µM [inhibitor, partial curve, poor fit]
11 | O=C(c1ccc(C(F)(F)F)cc1)N1CCC2(CC(c3cccc(C(F)(F)F)c3)=NO2)C1 (stereo not drawn) | inconclusive: 44.7 µM [inhibitor, partial curve, poor fit]
12 | CN1C[C@@H](NS(=O)(=O)c2ccccc2)C[C@H]1c1nc(-c2ccccn2)no1 | inconclusive: 70.8 µM [inhibitor, partial curve]
13 | Cc1ccc(NC(=O)Cn2c(N3CCCCC3)nc(C)c(C)c2=O)cc1 | inconclusive: 70.8 µM [inhibitor, single point]
14 | COc1ccccc1-c1cccc(CN2CCC(NC(=O)c3ccccc3Cl)CC2)c1 | inconclusive: 50.1 µM [inhibitor, partial curve, poor fit]
15 | CCCNC(=O)N1CCC2(CC1)CC(c1ccccc1)C(=O)N2C (stereo not drawn) | inactive
16 | NCc1cccc(-c2ccc3c(c2)C(=O)N2CC[C@H](NC(=O)c4cccc(F)c4)[C@H]2C(=O)N3)c1 | inconclusive: 31.6 µM [inhibitor, partial curve, poor fit]
17 | O=C(NC1CCCC1)NC1CCN(Cc2cccc(-c3ccc(F)cc3F)c2)CC1 | inconclusive: 56.2 µM [inhibitor, partial curve, poor fit] and inconclusive: 17.8 µM [inhibitor, full curve, poor fit]
18 | COc1ccccc1Nc1ccnc(N2CCN(C(=O)c3ccccc3)CC2)n1 | active: 35.5 µM
19 | CC(C)c1ccc(NC(=O)N[C@H]2CO[C@H]3[C@@H]2OC[C@H]3OC(=O)Nc2cccc(C(F)(F)F)c2)cc1 | active: 25.1 µM

Row | SMILES | Potency
20 | COc1cc(CN2C[C@@H](CO)[C@H](NC(=O)c3ccccc3)C2)ccc1F | inconclusive: 56.2 µM [inhibitor, partial curve, poor fit]
21 | CC1=NS(=O)(=O)N(C)C=C1C(=O)OCc1noc(-c2ccccc2C)n1 | inconclusive: 35.5 µM [inhibitor, partial curve]
22 | Cc1noc(C)c1C(=O)N1Cc2ccccc2CC2(CCCN(CC3CCNC3)C2)C1 (stereo not drawn) | inconclusive: 50.1 µM [inhibitor, partial curve, poor fit]
23 | COCCC(=O)N1CCc2c(n(CCOc3ccccc3)n(-c3ccccc3)c2=O)C1 | inconclusive: 100 µM [inhibitor, partial curve, poor fit]
24 | CC(C)NC(=O)N1CCC2(CC1)CC(N(Cc1ccc(F)cc1)C1CC1)CCO2 (stereo not drawn) | inactive
25 | COc1ccccc1C(=O)NC1CCN(c2ccnc3ccnn23)C1 (stereo not drawn) | inconclusive: 39.8 µM [inhibitor, partial curve, poor fit]
26 | COc1ccc(C(=O)N2CCC3(CC2)NC(=O)N(c2cccc(Cl)c2)N3)cc1 | inconclusive: 44.7 µM [inhibitor, partial curve, poor fit]
27 | Cc1ccccc1N(C)C1CN(Cc2ccc(F)cc2)C1 | inactive
28 | CCN1c2cc(C(=O)Nc3cc(C)cc(C)c3)ccc2C(=O)N2CCCC21 (stereo not drawn) | inconclusive: 70.8 µM [inhibitor, single point]
29 | COc1cccc(-c2noc(CN3CCC(c4nc(-c5cccn5C)no4)C3)n2)c1OC (stereo not drawn) | inconclusive: 50.1 µM [inhibitor, partial curve, poor fit]
30 | CCc1noc(-c2cn(C3CCN(C(=O)c4ccc(Cl)cc4)C3)nn2)n1 (stereo not drawn) | inactive
31 | CN(Cc1cccnc1)Cc1nc(C2(O)CCN(Cc3ccccc3F)CC2)cs1 | inconclusive: 89.1 µM [inhibitor, partial curve, poor fit]
32 | CN(C)C(=O)N1CCCC(C(=O)N2CCC3(CC2)CC(=O)Nc2ccccc2O3)C1 (stereo not drawn) | inactive
33 | O=C(Nc1ccccc1F)N1CC(Oc2cccc(-c3nc(-c4ccccc4)no3)c2)C1 | inconclusive: 10 µM [inhibitor, full curve]
34 | O=C(c1cc(-c2ccccc2)n[nH]1)N1CCC2(CC1)N=C(c1ccccc1)NO2 | inconclusive: 70.8 µM [inhibitor, single point]
35 | O=C([C@H]1CCC[C@H](O)C1)N1CCN(Cc2ccc(C(F)(F)F)cc2)CC1 | inactive
36 | COc1cc(OC)cc(-c2nc(C3CC(=O)N(c4ccc(F)c(Cl)c4)C3)no2)c1 (stereo not drawn) | inconclusive: 44.7 µM [inhibitor, partial curve, poor fit]
37 | Cn1ncc2c(C(=O)NCc3ccc(F)cc3)cc(C(C)(C)C)nc21 | inconclusive: 100 µM [inhibitor, single point] and inconclusive: 56.2 µM [inhibitor, partial curve, poor fit]
38 | O=C(NC1CCN(c2cc(C(F)(F)F)ncn2)CC1)c1ccccc1 | inconclusive: 15.8 µM [inhibitor, partial curve, poor fit]
